Data: PubChem BioAssay AID360 (National Center for Advancing Translational Sciences (NCATS), 2006)
Out of some 48,000 compounds screened, about 550 (1.1%) were called active. About 4% were inconclusive and are not listed. Cut-off read from the data, not from the text of the source: active = potency below about 15 µM; inconclusive = mostly about 16 µM to 33 µM; inactive = weaker than that. This is one part of the list.

target: Lysosomal acid glucosylceramidase (Homo sapiens) (UniProt P04062); assay: Glucocerebrosidase; details: purified enzyme, resorufin glucoside fluorescence (screen aimed at inhibitors), 20 min;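 note: the screen sought inhibitors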
UniProt P04062, sequence (P04062 whole entry, looked up): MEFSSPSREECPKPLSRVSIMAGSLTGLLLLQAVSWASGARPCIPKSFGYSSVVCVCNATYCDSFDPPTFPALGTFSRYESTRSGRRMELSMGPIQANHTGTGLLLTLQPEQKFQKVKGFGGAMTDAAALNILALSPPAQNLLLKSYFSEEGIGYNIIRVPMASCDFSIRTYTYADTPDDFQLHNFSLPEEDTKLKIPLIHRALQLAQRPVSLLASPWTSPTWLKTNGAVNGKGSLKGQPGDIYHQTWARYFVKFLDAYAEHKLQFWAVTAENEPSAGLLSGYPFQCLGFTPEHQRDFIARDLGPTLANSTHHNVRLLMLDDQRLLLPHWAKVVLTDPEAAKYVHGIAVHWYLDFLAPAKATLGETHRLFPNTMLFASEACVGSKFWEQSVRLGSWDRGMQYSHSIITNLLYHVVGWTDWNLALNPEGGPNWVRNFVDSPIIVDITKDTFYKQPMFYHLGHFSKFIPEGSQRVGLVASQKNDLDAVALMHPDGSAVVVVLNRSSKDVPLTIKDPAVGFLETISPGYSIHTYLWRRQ
In short: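 Compounds titrated against 0.2 nM normal enzyme, 30 uM resorufin beta-D-glucopyranoside substrate, citrate/phosphate buffer with taurocholate and tween-20, pH 5.9. Reaction ran 20 min at room temperature; fluorescence (Ex 548/Em 600) gave AC50.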
Potency is the fitted concentration of half-maximal effect.

Potency, active:
CN1CCN(S(=O)(=O)c2ccc(NC(=O)c3ccc(F)cc3)cc2)CC1 14.1 µM

Potency, inactive:
C=CCn1c(N)c(C(=O)N2CCOCC2)sc1=S > 76.9 µM, O=C(CN(C(=O)Cn1nnc(-c2ccc(F)cc2)n1)C1CCCC1)NC1CCCC1 > 76.9 µM, O=c1c2ccccc2nnn1CSc1nnc2sc3ccccc3n12 > 76.9 µM, COc1ccccc1OCCSc1nnc(C)n1-c1ccccc1 > 76.9 µM, N#Cc1cccc(C(c2nnnn2CCc2ccccc2)N2CCN(C3CCCCC3)CC2)c1 (stereo not given) > 76.9 µM, Cc1cccc(-n2c(CNC(=O)COc3ccccc3)nnc2SCC(=O)Nc2nccs2)c1 > 76.9 µM, CCOc1ccc(N/C(SC)=C(/C#N)C(N)=O)cc1 > 76.9 µM, CS(=O)(=O)N1CCN(C(=O)C2c3ccccc3Oc3ccccc32)CC1 > 76.9 µM, CCOc1ccccc1N(CC(=O)N1CCOCC1)S(=O)(=O)c1ccccc1 > 76.9 µM, CN(Cc1cc2ccccc2[nH]c1=O)C(=O)C1CCCCC1 > 76.9 µM, O=C(NCc1cccnc1)C1c2ccccc2C(=O)N1Cc1ccco1 (stereo not given) > 76.9 µM, O=C(O)CSc1nnc(-c2ccncc2)n1C1CCCCC1 > 76.9 µM, Fc1cccc(-c2cc3nc4c(c(N5CCC6(CC5)OCCO6)n3n2)CCCC4)c1, Cc1nc(NC(=O)COC(=O)C(NC(=O)c2ccco2)C(C)C)c(Cl)cc1Cl (stereo not given) > 76.9 µM, O=C(CSCC(=O)Nc1nccs1)Nc1ccccc1 > 76.9 µM, O=C(CCCCCNS(=O)(=O)c1ccc(Br)cc1)NCCN1CCOCC1, Cc1ccc(C(C(=O)NC2CCCC2)N(Cc2ccco2)C(=O)CCC(=O)Nc2ccccn2)cc1 (stereo not given) > 76.9 µM, CCn1c(=O)n(CC(=O)N2CCN(c3ccccc3F)CC2)c(=O)c2ccccc21 > 76.9 µM, COc1ccc(NC(=O)c2ccc(-n3nc(C)c[n+]3[O-])cc2)cc1 > 76.9 µM, O=C(CCc1nc(-c2ccccc2F)no1)NC1CCCCC1 > 76.9 µM, Cc1ccccc1CN1CCN(CC(=O)NCCCN2CCN(c3ccc(F)cc3)CC2)C1=O > 76.9 µM, O=C(OC1CSc2nc3ccccc3n2C1)c1ccco1 (stereo not given) > 76.9 µM, COCCSc1nc2sc3c(c2c(=O)n1-c1ccccc1)CCN(C)C3 > 76.9 µM, COc1ccc(-c2cc(C(=O)Nc3c(C)nn(Cc4ccccc4Cl)c3C)no2)cc1 > 76.9 µM, Cc1cc(C(=O)CSc2nnc(N)s2)c(C)n1CCc1ccc(Cl)cc1 > 76.9 µM, COc1cccc(-c2cc3nc(-c4ccccc4)cc(N4CCC5(CC4)OCCO5)n3n2)c1 > 76.9 µM, O=C(c1ccc(Cl)c(F)c1F)N1CCCC1 > 76.9 µM, CN(CC(=O)Nc1ccncc1)S(=O)(=O)c1ccccc1 > 76.9 µM, COc1cc2ccccc2cc1C(=O)N1CCN(C)CC1 > 76.9 µM, O=C(CSc1nnc(Cc2ccccc2)n1Cc1ccco1)NC1CCCC1 > 76.9 µM, COc1ccccc1N1CCN(C(=O)c2sc3nc(-c4ccccc4)cn3c2C)CC1 > 76.9 µM, O=C(O)c1cc(NS(=O)(=O)c2cccc3ccccc23)ccc1O > 76.9 µM, CCOC(=O)CSc1cc(C)nc(NC(C)=O)n1 > 76.9 µM, CC(=O)Nc1cccc(N2CCCC2=O)c1 > 76.9 µM, Clc1ccc(-c2nnc3sc(-c4ccc(Br)o4)nn23)cc1 > 76.9 µM, O=C(O)CCN1C(=O)c2ccncc2C1=O > 76.9 µM, O=C(NC1CS(=O)(=O)CC1NCc1ccco1)c1ccccc1 (stereo not given) > 76.9 µM, Nc1nnc(CSCc2ccccc2)s1 > 76.9 µM, COCCSc1ccccc1C(=O)N1CCCC1 > 76.9 µM, Cc1cc(C(=O)NCc2cccnc2)cs1 > 76.9 µM, CCn1c(=O)c(C(=O)Nc2cnccn2)c(O)c2ccccc21 > 76.9 µM, Nc1nc2n(n1)C(c1ccco1)CC(c1ccccc1)N2 (stereo not given) > 76.9 µM, Cn1ncc2c1ncn1nc(COc3ccc4ccccc4c3)nc21 > 76.9 µM, COC(=O)c1ccc(NC(=O)CSc2nnc(COc3ccccc3)n2C)cc1 > 76.9 µM, COCCNC(=O)C(c1ccc(F)cc1)N(CCOC)C(=O)CCC(=O)Nc1nccs1 (stereo not given) > 76.9 µM, Cc1ccc2nc(NC(=O)CCNS(=O)(=O)c3cccs3)sc2c1 > 76.9 µM, CCC1CCCCN1C(=O)N[C@@H](CCSC)C(=O)OC (stereo not given in full) > 76.9 µM, C=CCn1c(NCc2ccccc2)nc2ccccc21 > 76.9 µM, O=C(O)C1CC=C(Cl)CC1C(=O)NCC1OCCc2ccccc21 (stereo not given) > 76.9 µM, Cc1ccc(CNc2nc3ccccc3n3nnnc23)cc1 > 76.9 µM, Cc1ccccc1-n1c(=O)cc(N2CCc3ccccc3C2)[nH]c1=O > 76.9 µM, Cn1c(=O)c2c(-c3ccccc3)n(Cc3cccnc3)cc2n(C)c1=O > 76.9 µM, COCCCNC(=O)C1CCCCN1S(=O)(=O)c1ccc(F)cc1 (stereo not given) > 76.9 µM, CCCN1C(=O)SC(CC(=O)Nc2ccccc2)C1=O (stereo not given) > 76.9 µM, Cc1cc(OCC(=O)NCc2nc(-c3ccccc3)no2)c(C)cc1Br > 76.9 µM, COCCCNC(=O)CN1C(=O)c2ccccc2C1=O > 76.9 µM, O=C(CSc1nnc(-c2ccccc2Br)o1)N1CCN(C(=O)c2ccco2)CC1 > 76.9 µM, Cc1cccc(-c2nnc(NC(=O)c3ccc(Cl)cc3)o2)c1 > 76.9 µM, COc1ccc(CCNC(=O)CSc2nc(-c3ccco3)cc(C(F)(F)F)n2)cc1 > 76.9 µM
